Some of the results follow. Single values are uncertain, as repeats are few or missing.
Tests used:
Assay in all cases: cell count relative to DMSO control; melanoma cells; higher = more viable cells
Settings in all cases: library dose: low library concentration; 72 h
[1] = tested on: MZ2-MEL
[2] = tested on: MeWo
[3] = tested on: RPMI7951
[4] = tested on: RVH-421
[5] = tested on: SkMel28
[6] = tested on: SkMel2
[7] = tested on: SkMel30
[8] = tested on: SkMel5
[9] = tested on: UACC257
[10] = tested on: UACC62
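Further: cell number obtained by counting DAPI-stained nuclei in high-throughput microscope images with image analysis software, screen run in 1,536-well plates.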

SMILES	cell count [1] [%]	cell count [2] [%]	cell count [3] [%]	cell count [4] [%]	cell count [5] [%]	cell count [6] [%]	cell count [7] [%]	cell count [8] [%]	cell count [9] [%]	cell count [10] [%]
CCN(CC)CCNC(=O)c1c(C)[nH]c(/C=C2\C(=O)Nc3ccc(F)cc32)c1C [sunitinib] + Cc1cc([N+](=O)[O-])ccc1NS(=O)(=O)c1cc(Cl)ccc1Cl [FH535] (first compound 0.4 µM, partner dose 1 µM)	95.4	88.5	98.9	87.1	71.2	118	62.3	68.6	74.4	74.9
CCN(CC)CCNC(=O)c1c(C)[nH]c(/C=C2\C(=O)Nc3ccc(F)cc32)c1C [sunitinib] + CCc1ccc(CCOc2ccc(CC3SC(=O)NC3=O)cc2)nc1 [pioglitazone] (first compound 0.4 µM, partner dose 2 µM)	111	83	110	120	99.3	109	72.1	100	88.2	103
Cn1cnc2c(F)c(Nc3ccc(Br)cc3Cl)c(C(=O)NOCCO)cc21 [selumetinib] + CCCCCCCCCCCC1=C(O)C(=O)C=C(O)C1=O [Embelin] (first compound 0.015 µM, partner dose 1.2 µM)	98.1	96.8	108	102	92.5	84.8	64.5	126	102	75.9
Cn1cnc2c(F)c(Nc3ccc(Br)cc3Cl)c(C(=O)NOCCO)cc21 [selumetinib] + Oc1cc(-c2nc(-c3ccccc3)[nH]c2-c2ccncc2)ccc1Cl [L779450] (first compound 0.015 µM, partner dose 0.2 µM)	108	100	86.6	81.9	57.8	42.6	87	90.3	85	50.9
Cn1cnc2c(F)c(Nc3ccc(Br)cc3Cl)c(C(=O)NOCCO)cc21 [selumetinib] + O=c1cc(-c2cccc3c2Sc2ccccc2S3)oc(N2CCOCC2)c1 [KU55933] (first compound 0.015 µM, partner dose 1 µM)	84.3	96.4	96.6	64.8	91.3	75.9	52.8	136	113	78.9
C[C@]1(O)C[C@@H](c2nc(-c3ccc4ccc(-c5ccccc5)nc4c3)c3c(N)nccn32)C1 + COc1cc2c(Oc3ccc4[nH]c(C)cc4c3F)ncnc2cc1OCCCN1CCCC1 [cediranib] (first compound 0.4 µM, partner dose 0.4 µM)	101	100	133	140	92.9	75.2	92.7	80.3	88.6	78.4
CCN(CC)CCNC(=O)c1c(C)[nH]c(/C=C2\C(=O)Nc3ccc(F)cc32)c1C [sunitinib] + C=CCn1c(=O)c2cnc(Nc3ccc(N4CCN(C)CC4)cc3)nc2n1-c1cccc(C(C)(C)O)n1 [MK1775] (first compound 0.4 µM, partner dose 0.02 µM)	101	84.7	114	120	82.4	94.6	59.1	96	75.3	67.1
COc1cc([C@@H]2c3cc4c(cc3[C@@H](O[C@@H]3O[C@@H]5CO[C@@H](C)O[C@H]5[C@H](O)[C@H]3O)[C@H]3COC(=O)[C@H]23)OCO4)cc(OC)c1O [etoposide] + Cn1cc(/C=C2\C(=O)Nc3cccnc32)c2ccccc21 [GW441756] (first compound 0.02 µM, partner dose 0.4 µM)	96	91.9	96.9	106	94.6	93	93.4	90.8	80.9	84.8
C[C@]1(O)C[C@@H](c2nc(-c3ccc4ccc(-c5ccccc5)nc4c3)c3c(N)nccn32)C1 + CC(C)CCN1c2nc(Nc3cc(F)c(O)c(F)c3)ncc2N(C)C(=O)C1C [BID1870] (first compound 0.4 µM, partner dose 0.2 µM)	93.8	90.2	92.7	99.3	80.2	68.9	74.1	74.2	92	76.6
CCN(CC)CCNC(=O)c1c(C)[nH]c(/C=C2\C(=O)Nc3ccc(F)cc32)c1C [sunitinib] + COc1ccc2c(c1)CCC1C2CCC2(C)C(NCCCCCCN3C(=O)C=CC3=O)CCC12 [U73122] (first compound 0.4 µM, partner dose 0.4 µM)	112	89	92	129	104	115	88	111	85.7	87.4
Cn1cnc2c(F)c(Nc3ccc(Br)cc3Cl)c(C(=O)NOCCO)cc21 [selumetinib] + Cc1ccc(NC(=O)c2cccc(N(C)C)c2)cc1NC(=O)c1ccc(O)cc1 [ZM336372] (first compound 0.015 µM, partner dose 2 µM)	125	98.2	124	65.6	75.9	85.4	110	109	72.4	85.1
Cn1cnc2c(F)c(Nc3ccc(Br)cc3Cl)c(C(=O)NOCCO)cc21 [selumetinib] + O=C1NC(=O)/C(=C/c2ccc(-c3ccc(F)cc3O)o2)S1 [AS252424] (first compound 0.015 µM, partner dose 1 µM)	66.8	95.4	125	89.4	82.6	67.9	71.3	118	84.6	73.5
Cn1cnc2c(F)c(Nc3ccc(Br)cc3Cl)c(C(=O)NOCCO)cc21 [selumetinib] + Cn1cncc1[C@@](N)(c1ccc(Cl)cc1)c1ccc2c(c1)c(-c1cccc(Cl)c1)cc(=O)n2C [tipifarnib] (first compound 0.015 µM, partner dose 0.01 µM)	79.9	89.1	125	85	71.5	68	60.8	120	59.8	65.9
C[C@]1(O)C[C@@H](c2nc(-c3ccc4ccc(-c5ccccc5)nc4c3)c3c(N)nccn32)C1 + N#Cc1c(O)c2c(-c3ccc(-c4ccccc4O)cc3)csc2[nH]c1=O [A769662] (first compound 0.4 µM, partner dose 2 µM)	99.3	85.2	107	92.5	87.5	86.3	90.1	98.7	88	91.4
Cn1cnc2c(F)c(Nc3ccc(Br)cc3Cl)c(C(=O)NOCCO)cc21 [selumetinib] + COc1cc2ncnc(Nc3ccc(Oc4ccccc4)cc3)c2cc1OC [SrcI1] (first compound 0.015 µM, partner dose 2 µM)	98.6	81.6	102	90.3	91.8	88	81.2	106	112	77.5
Cn1cnc2c(F)c(Nc3ccc(Br)cc3Cl)c(C(=O)NOCCO)cc21 [selumetinib] + COc1ccc(COc2ccc(Cc3cnc(N)nc3N)cc2OC)cc1 [GW2580] (first compound 0.015 µM, partner dose 1 µM)	114	103	127	92.2	93.4	81	81.4	126	90.6	79.7
C[C@]1(O)C[C@@H](c2nc(-c3ccc4ccc(-c5ccccc5)nc4c3)c3c(N)nccn32)C1 + Cc1cc([N+](=O)[O-])ccc1NS(=O)(=O)c1cc(Cl)ccc1Cl [FH535] (first compound 0.4 µM, partner dose 1 µM)	95.2	92.7	93.6	115	84.9	83.7	78.6	70.3	77.6	83.7
C[C@]1(O)C[C@@H](c2nc(-c3ccc4ccc(-c5ccccc5)nc4c3)c3c(N)nccn32)C1 + NCC(=O)Nc1ccc(-n2nc(C(F)(F)F)cc2-c2ccc3c(ccc4ccccc43)c2)cc1 [OSU03012] (first compound 0.4 µM, partner dose 1 µM)	88.1	64.7	111	88.4	96.8	81	52.9	83.2	96.9	80.8
COc1cc([C@@H]2c3cc4c(cc3[C@@H](O[C@@H]3O[C@@H]5CO[C@@H](C)O[C@H]5[C@H](O)[C@H]3O)[C@H]3COC(=O)[C@H]23)OCO4)cc(OC)c1O [etoposide] + CCc1ccc(CCOc2ccc(CC3SC(=O)NC3=O)cc2)nc1 [pioglitazone] (first compound 0.02 µM, partner dose 2 µM)	94.5	101	99.4	102	97.6	102	87.4	111	105	79.7
Cn1cnc2c(F)c(Nc3ccc(Br)cc3Cl)c(C(=O)NOCCO)cc21 [selumetinib] + COc1cc(Nc2ncc(F)c(Nc3ccc4c(n3)NC(=O)C(C)(C)O4)n2)cc(OC)c1OC [Tamatinib] (first compound 0.015 µM, partner dose 0.4 µM)	71.3	73.6	93.4	90.3	80.4	71.7	42.1	96.8	53.4	69.8
CCN(CC)CCNC(=O)c1c(C)[nH]c(/C=C2\C(=O)Nc3ccc(F)cc32)c1C [sunitinib] + Cn1cncc1[C@@](N)(c1ccc(Cl)cc1)c1ccc2c(c1)c(-c1cccc(Cl)c1)cc(=O)n2C [tipifarnib] (first compound 0.4 µM, partner dose 0.01 µM)	99.3	76.7	95.8	86.3	87.6	96	93	107	59.7	57.3

From the supplement of paper PMC4604168 (melanoma cell lines)
